# Measured values from PubChem BioAssay AID463173 (ICCB-Longwood Screening Facility, Harvard Medical School, 2010).
# The whole screen tested about 52,000 compounds, of which about 4,300 (8.3%) were called active. No stated cut-off is given here; in the data, active means survival mostly below about 52% (no sharp cut-off); inactive means mostly above about 56%. This is one part of the list.
# Tested on: DeltatarO mutant
# Assay: growth inhibition of S. aureus wild type versus tarO mutant, primary screen, teichoic acid synthesis inhibitors, RN4220, OD600 (AID 463173)
# Conditions: OD600, 18 h, hits give low values, screened at 18.75 µg/mL (by protocol)
row,SMILES,survival
1,COc1cccc(NC(=O)Cn2c(=O)n(CCCCC(=O)NCc3ccc4c(c3)OCO4)c(=O)c3ccccc32)c1,inactive: 84%
2,COc1ccc(CCN2C(=O)N(c3ccc(C)cc3)C(=O)C2CC(=O)Nc2ccc(OC)cc2)cc1 (stereo not given),inactive: 69%
3,CCOC(=O)C1CCCN(C(=O)Cn2ncc3c4ccccc4n(C)c3c2=O)C1 (stereo not given),inactive: 121%
4,COc1cc(NC(=O)c2cc(S(=O)(=O)N3CCC(C)CC3)cn2C)cc(OC)c1OC,inactive: 102%
5,Cc1cccc(NC(=O)CN2C(=O)CC(c3ccccc3)Sc3ccccc32)c1 (stereo not given),inactive: 76%
6,Cc1ccccc1NC(=O)Cn1nnc(C(=O)NCc2cccs2)c1N,inactive: 91%
7,Cc1ccc(NC(=O)CCc2c(C)nc3ncnn3c2C)cc1Cl,inactive: 105%
8,CCc1ccc(NS(=O)(=O)c2ccc(NC(=O)N3CCCC3)cc2)cc1,inactive: 95%
9,Cc1ccc(C)c(CSc2cn(CCNC(=O)c3cccs3)c3ccccc23)c1,inactive: 71%
10,CCc1ccc(NC(=O)Cn2nnc(C(=O)Nc3ccc(F)cc3)c2N)cc1,inactive: 99%
11,O=C(Nc1cccc(O)c1)c1cc(-c2ccccc2F)no1,inactive: 82%
12,CC(CNC(=O)c1csc2c1CCCCC2)c1ccccc1 (stereo not given),active: -1%
13,CCOc1ccccc1NC(=O)NCc1noc2ccc(C)cc12,active: 35%
14,COc1cccc2c1cc1c(=O)n(CC(=O)NCc3ccc(N(C)C)cc3)nc(C)n12,inactive: 94%
15,COc1cc(C(=O)NCC(c2ccc3c(c2)OCO3)N2CCN(C)CC2)cc(OC)c1OC (stereo not given),inactive: 94%
16,CC(C)c1ccc2oc(-c3cc(NC(=O)c4cccnc4)ccc3Cl)nc2c1,active: -2%
17,Cc1ccc(N2CC(C(=O)NCc3nnnn3-c3ccc(C)c(C)c3)CC2=O)cc1C (stereo not given),inactive: 75%
18,O=c1n(Cc2ccc(Cl)cc2)nc2n1-c1ccccc1OC2,inactive: 71%
19,COc1cccc(NC(=O)c2sc3nc(C)c(C(=O)Nc4ccc(C)cc4C)c(-c4ccc(C)o4)c3c2N)c1,active: 39%
20,CCC1CCCCN1CCCNC(=O)c1c(C)oc2ncn(CC(C)C)c(=O)c12 (stereo not given),inactive: 89%
21,O=C(O)c1ccc(NS(=O)(=O)c2ccc(N3C(=O)CCC3=O)cc2)cc1,inactive: 103%
22,CC(C)(O)C1Cc2cc(/C=C/C(=O)O)c(O)cc2O1 (stereo not given),inactive: 88%
23,Cc1ccc(S(=O)(=O)NC(CO)C(=O)O)cc1 (stereo not given),inactive: 101%

row,SMILES,survival
1,Cc1cccc2c(=O)cc(CSc3ccccc3NC(=O)c3cccc(Br)c3)[nH]c12,inactive: 86%
2,O=C(Nc1cccc(F)c1)C1CCN(S(=O)(=O)c2ccc3[nH]c4c(c3c2)CCCCC4)CC1,inactive: 89%
3,COc1ccc(NC(=O)CSc2nc3nc(C)cc(C)n3n2)cc1OC,inactive: 87%
4,COc1ccc(NC(=O)C2CCCN(c3cnccn3)C2)c(OC)c1 (stereo not given),inactive: 107%
5,CCC(Cc1ccccc1)NC(=O)CCS(=O)(=O)c1cc2c(cc1Cl)NC(=O)CO2 (stereo not given),inactive: 91%
6,CCOc1ccc(CNC(=O)Nc2ccc3c(c2)N(C)C(=O)c2ccccc2S3)cc1,inactive: 75%
7,Cc1ccc(NC(=O)CSc2cn(CC(=O)N3CCOCC3)c3ccccc23)cc1Cl,inactive: 88%
8,CCC(C)n1c(=N)c(C(=O)NC2CCCC2)cc2c(=O)n3ccccc3nc21 (stereo not given),inactive: 65%
9,COc1cccc(N2CCN(C(=O)c3cc4c(=O)n(Cc5cccnc5)ccc4nc3C)CC2)c1,inactive: 102%
10,COc1ccc(NC(=O)Cn2c(SCc3ccc(F)cc3)nc3cccnc32)c(OC)c1,inactive: 76%
11,CC1CCn2c(nc3cc(C(=O)NCCc4ccccc4)ccc32)C1 (stereo not given),inactive: 84%
12,COC(=O)c1ccccc1NC(=O)CCC(=O)N1CC(C)Sc2ccccc21 (stereo not given),active: 42%
13,Cc1ccc2c(=O)cc(C(=O)Nc3ccc(S(=O)(=O)N4CCCCC4)cc3)oc2c1,inactive: 58%
14,COC(=O)C(NC(=O)CCc1c(C)nc2cc(-c3cccc(F)c3)nn2c1C)C(C)C (stereo not given),inactive: 73%
15,CCCn1cc(S(=O)(=O)c2ccccc2)c(=O)c2cc(F)c(N3CCCCCC3)cc21,inactive: 67%
16,O=C(Cn1cc2c(n1)CCCC2)Nc1cc(C(F)(F)F)ccc1Cl,inactive: 87%
17,Cc1nc(SCc2ccccc2Cl)c(C#N)c(C)c1C,inactive: 48%
18,Cc1cc(C)cc(NC(=O)c2sc3nc4n(c(=O)c3c2C)N=C(c2ccc(F)cc2)CS4)c1,inactive: 124%
19,COc1ccc2sc(N(Cc3cccnc3)C(=O)c3cccs3)nc2c1,inactive: 76%
20,Cn1c(=O)c2nc3ccc(NC(=O)C(F)(F)F)cc3nc2n(C)c1=O,inactive: 54%
21,Cc1ccc2c(c1)C(c1ccccc1)N(C(=O)c1ccc(S(=O)(=O)N3CCCC3)cc1)CC(=O)N2 (stereo not given),inactive: 65%
22,Cc1ccc(NC(=O)CN2C(=O)CSc3ccc(S(=O)(=O)N(C)C)cc32)c(C)c1,inactive: 73%
23,O=S(=O)(c1ccccc1)c1nnn2c1nc(N1CCN(c3ccccc3)CC1)c1cc(Cl)ccc12,inactive: 91%

row,SMILES,survival
1,COc1ccc2sc(N(Cc3cccnc3)C(=O)C3COc4ccccc4O3)nc2c1 (stereo not given),inactive: 86%
2,Cc1ccc(-n2ncc3c(NC4CCCC4)ncnc32)cc1,inactive: 80%
3,CCOC(=O)/C(C#N)=C/c1ccc(-c2ccccc2)o1,inactive: 52%
4,CCOc1ccc(OCC)c(NC(=O)c2cnn(-c3ccc(F)cc3)c2C2CCN(C(=O)OC(C)(C)C)CC2)c1,inactive: 55%
5,CCOC(=O)C1CCCN(C(=O)Cn2ncc3c(C)n(Cc4ccc(F)cc4)c(C)c3c2=O)C1 (stereo not given),inactive: 106%
6,C=CCn1c(C)c(/C=C/C2=CCN(C)CC2)c2ccccc21,inactive: 78%
7,O=C(Nc1ccc2nc(SCCOc3ccccc3Cl)sc2c1)c1ccco1,active: 14%
8,COc1cccc(-c2nn(C)c3sc(C(=O)NCCc4cccc(C)c4)cc23)c1,inactive: 130%
9,COc1ccc(C)cc1NC(=O)c1c(C(=O)Nc2cccc(C)c2C)sc2nc(C)cc(=O)n12,active: 61%
10,Cc1nnc(N2CCN(c3cccc(Cl)c3)CC2)c2c1nnn2Cc1ccc(F)cc1,inactive: 79%
11,CCn1c(=O)cc(SCC(=O)Nc2cc(Cl)ccc2OC)c2ccccc21,inactive: 67%
12,Cc1ccc(C(=O)Nc2nnc(S(=O)(=O)N(C)Cc3ccc(F)cc3)s2)cc1,inactive: 60%
13,CC1CCCN(c2nc(-c3ccccc3O)nc3ccccc23)C1 (stereo not given),active: -6%
14,CCOc1ccc(-n2c(C)nc3cc(C(=O)NCc4ccc(C)cc4)ccc32)cc1,inactive: 82%
15,CCOc1ccc2c(c1)c(=O)c(C(=O)c1ccc3c(c1)OCO3)cn2Cc1cccc(F)c1,inactive: 76%
16,COc1ccc(-n2ccnc(NCc3cccs3)c2=O)cc1,active: 20%
17,Cc1ccc2[nH]c(=O)c(CN(CCCO)C(=O)NC3CCCCC3)cc2c1,inactive: 95%
18,CCc1ccc(Cn2c(CNS(=O)(=O)c3ccc([N+](=O)[O-])cc3)nc3cccnc32)cc1,active: 8%
19,COCCCNC(=O)c1c(-c2ccccc2)c(-c2ccccc2)nn(C)c1=O,inactive: 50%
20,O=C(Nc1ccc2nc3n(c(=O)c2c1)CCCCC3)C(=O)Nc1ccccc1F,inactive: 57%
21,Cc1cccc(Nc2nn3c(=O)c4cc5c(cc4nc3s2)OCO5)c1,inactive: 116%
22,CCn1nc(C)c(CCN(C)C(=O)Nc2ccc(C)c(Cl)c2)c1C,inactive: 88%
23,COCCNC(=O)c1ccc(-n2c(-c3ccccc3)cc3c2CCC(C)C3)cc1 (stereo not given),inactive: 77%

row,SMILES,survival
1,Cc1ccc(C(=O)NCc2ccc3c(c2)CCN3C(=O)c2ccc(C)cc2)cc1,inactive: 83%
2,CCOC(=O)c1cc(-c2ccc(OC)c(S(=O)(=O)NC3CCCCC3)c2)on1,inactive: 89%
3,Cn1c(=O)c2c(nc(SCC(=O)N3CCCC3)n2C)n(C)c1=O,inactive: 89%
4,COc1ccc(CCNC(=O)CN2C(=O)COc3ccc(C)cc32)cc1OC,active: 45%
5,COc1ccccc1N(CC(=O)N1CCC(C)CC1)S(=O)(=O)c1ccc(C)cc1,inactive: 134%
6,N#Cc1cc(-c2ccc(Cl)cc2)no1,inactive: 97%
7,COc1ccc(CCNC(=O)c2ccc3c(c2)CCN3S(=O)(=O)c2ccccc2)cc1OC,inactive: 88%
8,CCOc1ccccc1NC(=O)Cn1c(=O)n(Cc2ccccc2)c(=O)c2c1c1cc(C)ccc1n2C,inactive: 90%
9,Cc1ccc(-n2ncc(C(=O)NCc3ccccc3)c2C2CCN(C(=O)OC(C)(C)C)CC2)cc1,inactive: 94%
10,Cc1cc(Nc2cccc(Cl)c2)nc2ccc(NC(=O)Cc3ccc(Cl)cc3)cc12,inactive: 105%
11,CN(C)C(=O)N1CCN(S(=O)(=O)c2ccccc2)CC1,inactive: 113%
12,COc1ccc(NC(=O)c2sc3nc4c(cc3c2N)CCCCCC4)c(OC)c1,inactive: 62%
13,COc1cc(N2C(=O)CSC23C(=O)N(Cc2cccc(F)c2)c2ccccc23)cc(OC)c1OC (stereo not given),inactive: 86%
14,CCN(CC)CCNC(=O)CN1C(=O)COc2ccc(S(=O)(=O)N3CCOCC3)cc21,inactive: 93%
15,CCOC(=O)Cn1c(=O)n(CC2CCCO2)c2nc(-c3ccc(OCC)cc3)nc(C(N)=O)c21 (stereo not given),active: -2%
16,Cc1ccc(Cl)cc1Nc1sc(C(=O)c2ccc(F)cc2)c(N)c1S(C)(=O)=O,inactive: 72%
17,CS(=O)c1nc(-c2cccs2)cc(-c2ccccc2)c1C#N (stereo not given),inactive: 73%
18,CCCc1nnc(SCC(=O)NC2CC2)n1CC,inactive: 56%
19,CCN1CC2CCCC3(C1)C(=O)NC1(CCCCC1)N=C23 (stereo not given),inactive: 74%
20,CCOc1ccc(CNCCCSc2nnnn2C)cc1OC,inactive: 74%
21,O=C(CSc1nc(=O)n(Cc2ccco2)c2c1CCC2)Nc1cccc(F)c1,inactive: 90%
